T1: PTK7 on H1975 and EKVX cells (Homo sapiens, UniProt Q13308)
T1 construct: cancer cell lines with endogenous expression of PTK7; endogenous in cells; host or cells: cultured cancer cell lines (e.g. H661, H446, U2OS, H520, H1048, OE19, OE21, H1975, EKVX)
T1 sequence (Q13308 31-1070): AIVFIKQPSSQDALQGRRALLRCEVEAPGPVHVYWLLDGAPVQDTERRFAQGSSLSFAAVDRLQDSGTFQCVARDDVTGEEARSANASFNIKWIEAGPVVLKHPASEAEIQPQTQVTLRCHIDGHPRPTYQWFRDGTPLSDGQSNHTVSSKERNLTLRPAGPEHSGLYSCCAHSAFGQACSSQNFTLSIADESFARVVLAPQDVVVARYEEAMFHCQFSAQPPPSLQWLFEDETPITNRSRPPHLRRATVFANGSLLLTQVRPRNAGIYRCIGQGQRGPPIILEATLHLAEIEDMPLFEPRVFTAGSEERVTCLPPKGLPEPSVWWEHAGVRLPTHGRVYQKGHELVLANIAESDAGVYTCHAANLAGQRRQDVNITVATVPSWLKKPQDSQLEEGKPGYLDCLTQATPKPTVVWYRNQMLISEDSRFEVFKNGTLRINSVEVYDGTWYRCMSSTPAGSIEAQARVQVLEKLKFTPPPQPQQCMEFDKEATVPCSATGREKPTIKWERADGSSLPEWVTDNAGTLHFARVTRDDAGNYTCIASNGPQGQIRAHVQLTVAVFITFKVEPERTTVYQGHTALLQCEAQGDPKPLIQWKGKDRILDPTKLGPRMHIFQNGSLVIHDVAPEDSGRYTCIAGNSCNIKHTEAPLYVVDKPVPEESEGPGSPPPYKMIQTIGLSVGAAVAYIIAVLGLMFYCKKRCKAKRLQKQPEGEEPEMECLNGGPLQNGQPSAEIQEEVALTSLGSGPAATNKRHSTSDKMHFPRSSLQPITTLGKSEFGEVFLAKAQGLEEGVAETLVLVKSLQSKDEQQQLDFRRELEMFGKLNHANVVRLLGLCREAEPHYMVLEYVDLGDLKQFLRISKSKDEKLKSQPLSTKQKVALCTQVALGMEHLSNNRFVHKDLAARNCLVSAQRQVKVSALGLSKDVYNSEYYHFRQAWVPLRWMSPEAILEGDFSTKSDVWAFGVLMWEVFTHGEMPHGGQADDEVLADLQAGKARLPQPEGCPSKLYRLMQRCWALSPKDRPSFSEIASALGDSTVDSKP

B1: hu24 (antibody)
heavy: QVQLVQSGPEVKKPGASVKVSCKASGYTFTDYAVHWVRQAPGKRLEWIGVISTYNDYTYNNQDFKGRVTMTRDTSASTAYMELSRLRSEDTAVYYCARGNSYFYALDYWGQGTSVTVSS[letters of human IgG1 constant region omitted]
light: EIVLTQSPATLSLSPGERATLSCRASESVDSYGKSFMHWYQQKPGQAPRLLIYRASNLESGIPARFSGSGSGTDFTLTISSLEPEDFAVYYCQQSNEDPWTFGGGTKLEIKRTVAAPSVFIFPPSDEQLKSGTASVVCLLNNFYPREAKVQWKVDNALQSGNSQESVTEQDSKDSTYSLSSTLTLSKADYEKHKVYACEVTHQGLSSPVTKSFNRGEC
B2: hu24-vc0101: hu24 conjugated through cysteines to vc0101 linker-payload; average DAR approximately 4 (conjugate)
heavy: B1 heavy
light: B1 light

Assays:
[1] = target: T1, PTK7 on H1975 and EKVX cells; test: Flow cytometry cell binding of conjugated and unconjugated hu24
Procedure: Briefly, adherent cells were dissociated with TrypLE™ Express (Gibco® No 12604-021) which was then neutralized with culture media. Suspension cells were harvested by centrifugation. Cells were resuspended in staining buffer (PBS with 3% BSA) with the stated concentration of mAb and incubated on ice for 30 minutes. Cells were washed in staining buffer, resuspended in staining buffer with phycoerythrin (PE)-labeled anti-human antibody (Jackson ImmunoResearch No 109-115-098) and incubated on ice for 30 minutes. Cells were washed, resuspended in staining buffer with 7-AAD viability stain (BD Biosciences, Pharmingen No 51-68981E) and analyzed by flow cytometry with a BD FACSCalibur™. The mean fluorescence intensity (MFI) in the PE channel of the viable cell population was determined for each sample.

[2] = system: H661 lung cancer cells; test: Microtubule structure by anti-tubulin immunofluorescence; format: cell-based, human; conditions: 48 hours, ADC or mAb 0-4 μg/mL, free 0101 0.1-10 nM, FIG. 22
Procedure: The cells were then fixed in 3% paraformaldehyde, washed with PBS, permeabilized with 0.5% Triton-X® (Sigma Chemical) in PBS, washed with PBS, and incubated with blocking buffer (5% normal goat serum and 0.2% Tween-20 in PBS). Cells were incubated with the primary anti-α-tubulin antibody (Sigma NoT9026, clone DM1A) in blocking buffer for 1 hour at room temperature. Afterwards, the cells were washed with PBS and incubated for 30 minutes with an Alexa Fluor® 488-conjugated secondary antibody (Invitrogen Corp) and 4′,6-diamidino-2-phenylindole (DAPI) to stain the DNA. The cells were visualized on a Zeiss LSM 510 Meta confocal microscope.

Molecule | mean channel fluorescence of the viable cell population ([1]; EKVX, 0.1 μg/mL) | mean channel fluorescence of the viable cell population ([1]; EKVX, 0.3 μg/mL) | mean channel fluorescence of the viable cell population ([1]; EKVX, 1 μg/mL) | mean channel fluorescence of the viable cell population ([1]; EKVX, 3 μg/mL) | mean channel fluorescence of the viable cell population ([1]; H1975, 0.1 μg/mL) | mean channel fluorescence of the viable cell population ([1]; H1975, 0.3 μg/mL) | mean channel fluorescence of the viable cell population ([1]; H1975, 1 μg/mL) | mean channel fluorescence of the viable cell population ([1]; H1975, 3 μg/mL) | effect on microtubule structure and cell cycle [2]
B1 | 4 | 4 | 4 | 5 | 91 | 183 | 310 | 348 | neither unconjugated hu24 mAb nor negative control mAb elicited these responses
B2 | 4 | 4 | 4 | 5 | 94 | 196 | 302 | 341 | disrupted microtubule structure and led to G2/M cell cycle arrest
